Source: PubChem BioAssay AID360 (National Center for Advancing Translational Sciences (NCATS), 2006)
In all, about 48,000 compounds went through this assay and about 550 (1.1%) were called active. About 4% were inconclusive and are not listed. Rule as the data show it: active = potency below about 15 µM; inconclusive = mostly about 16 µM to 33 µM; inactive = weaker than that. The list shows a part of the results.

What follows are compounds tested against Lysosomal acid glucosylceramidase (Homo sapiens) (UniProt P04062) (assay: Glucocerebrosidase). Settings: purified enzyme, resorufin glucoside fluorescence (screen aimed at inhibitors), 20 min; series mostly up to 77 µM.
Sequence of UniProt P04062 (P04062 whole entry, looked up): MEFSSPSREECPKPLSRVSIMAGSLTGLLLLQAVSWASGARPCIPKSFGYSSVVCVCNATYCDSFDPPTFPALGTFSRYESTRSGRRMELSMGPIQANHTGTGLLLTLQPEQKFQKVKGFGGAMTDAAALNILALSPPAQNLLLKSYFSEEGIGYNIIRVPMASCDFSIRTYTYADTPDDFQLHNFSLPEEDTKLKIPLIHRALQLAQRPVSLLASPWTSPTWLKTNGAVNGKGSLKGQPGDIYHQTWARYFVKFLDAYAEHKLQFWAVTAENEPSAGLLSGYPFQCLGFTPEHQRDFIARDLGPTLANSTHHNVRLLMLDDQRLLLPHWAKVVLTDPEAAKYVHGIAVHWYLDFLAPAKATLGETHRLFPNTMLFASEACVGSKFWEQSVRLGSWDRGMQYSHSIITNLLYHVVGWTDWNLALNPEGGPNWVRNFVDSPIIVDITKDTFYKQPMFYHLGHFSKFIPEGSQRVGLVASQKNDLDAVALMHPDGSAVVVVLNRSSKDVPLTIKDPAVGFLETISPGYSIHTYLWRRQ
Method in brief: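 Wild-type enzyme at 0.2 nM final in 50mM citric acid/KH2PO4, 10mM sodium taurocholate, 0.01% tween-20, pH 5.9, with resorufin beta-D-glucopyranoside at 30 uM final. Compounds titrated, 20 min at RT, red fluorescence read; AC50 from titration.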
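Also: the screen sought inhibitors.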
Potency is read from the fitted curve at half-maximal effect.

Row | SMILES | Potency
1 | CCOC(=O)C1C(=O)OC(C)(C)C1C(C)C(=O)c1ccc(OC)cc1 (configuration not stated) | inactive: > 76.9 µM
2 | CCN1CCCC1CN(Cc1cc2c(C)cc(C)cc2[nH]c1=O)C(=O)NC1CCCCC1 (configuration not stated) | inactive: > 76.9 µM
3 | O=S(=O)(c1ccc(S(=O)(=O)N(Cc2ccco2)Cc2ccccc2Cl)cc1)N1CCCC1 | inactive: > 76.9 µM
4 | N#CCSc1nc(-c2ccccc2)cs1 | inactive: > 76.9 µM
5 | COc1ccc(OC)c(-c2nc(C)sc2CC(=O)O)c1 | inactive: > 76.9 µM
6 | Cc1cc(C)c(S(=O)(=O)n2nc(C)c(Br)c2C)c(C)c1 | inactive: > 76.9 µM
7 | COc1ccc(NC(=O)C(c2ccc(C)cc2)N(C)C(=O)c2cnccn2)cc1 (configuration not stated) | inactive: > 76.9 µM
8 | O=C(Nc1cccc(F)c1)N1CC=C(n2c(=O)[nH]c3ccccc32)CC1 | inactive: > 76.9 µM
9 | O=C(c1cc2c(s1)CCCC2)N1CCN(C(=O)C2CCCO2)CC1 (configuration not stated) | inactive: > 76.9 µM
10 | COc1cccc(-c2cc(C(=O)Nc3cc(C)n(Cc4ccc(Cl)cc4)n3)no2)c1 | inactive: > 76.9 µM
11 | C=CCn1c(SCC(=O)c2cccs2)nnc1-c1cccc(OC)c1 | inactive: > 76.9 µM
12 | CCC(=O)N1CCc2cc(S(=O)(=O)N3CCN(C(=O)c4ccco4)CC3)ccc21 | inactive: > 76.9 µM
13 | COc1ccc(CCNS(=O)(=O)c2ccc(C3CNC(=O)C3)cc2)cc1OC (configuration not stated) | inactive: > 76.9 µM
14 | COc1cc(OC)c(NC(=O)CCNC(=O)Cn2cnc3ccccc3c2=O)cc1Cl | inactive: > 76.9 µM
15 | COc1ccc(C(C(=O)NC2CCCC2)N(C(=O)c2ccco2)c2ccc3c(c2)OCO3)cc1OC (configuration not stated) | inactive: > 76.9 µM
16 | Cc1ccc(C(=O)Nc2c(C)n(C)n(-c3ccccc3)c2=O)cc1S(=O)(=O)N1CCOCC1 | inactive: > 76.9 µM
17 | CCn1cc(C(=O)NCc2ccc3c(c2)OCO3)c(=O)c2ccc(C)nc21 | inactive: > 76.9 µM
18 | COc1cc(C(=O)Nc2ccc(-c3nc4cc(C)ccc4o3)c(O)c2)cc(OC)c1OC | inactive: > 76.9 µM
19 | COc1ccccc1NC(=O)C(Cc1ccc(Cl)cc1)c1nn[nH]n1 (configuration not stated) | inactive: > 76.9 µM
20 | Cc1cc(C)n2cc(CSc3ncccc3C(=O)O)nc2n1 | inactive: > 76.9 µM
21 | CCOC(=O)CCn1c(=O)c2c(nc(Br)n2Cc2ccccc2)n(C)c1=O | inactive: > 76.9 µM
22 | CCOC(=O)c1ccc(NC(=O)CCc2nc(-c3ccccc3)no2)cc1 | inactive: > 76.9 µM

Row | SMILES | Potency
23 | Cc1cc(NC(=O)CSc2nc3ccccc3n2CC(=O)N2CCCCC2)no1 | inactive: > 76.9 µM
24 | COc1ccc(CNC(=O)COc2ccc(S(=O)(=O)NC(C)C)cc2)cc1 | inactive: > 76.9 µM
25 | Cc1nc2ncccn2c1-c1csc(NCc2ccco2)n1 | inactive
26 | O=C(COc1ccccc1F)Nc1ccc(S(=O)(=O)NCc2ccco2)cc1 | inactive: > 76.9 µM
27 | COc1ccc(-c2cc3ccc(OCc4nn[nH]n4)cc3oc2=O)cc1 | inactive: > 76.9 µM
28 | O=C(NCCN1CCOCC1)c1cc(=O)[nH]c2ccc(Br)cc12 | inactive: > 76.9 µM
29 | COc1ccc(OC)c(C(c2nnnn2Cc2ccccc2)N2CCN(C)CC2)c1 (configuration not stated) | inactive: > 76.9 µM
30 | c1ccc(-c2nn3c(Cn4nnc5ccccc54)nnc3s2)cc1 | inactive: > 76.9 µM
31 | Cc1ccc(C(=O)C2COC(=O)C2)cc1 (configuration not stated) | inactive: > 76.9 µM
32 | COc1ccccc1C(=O)N1CCN(c2cccc(C(F)(F)F)c2)CC1 | inactive: > 76.9 µM
33 | O=C1CN(C(=O)CSc2nnc(-c3ccccc3)n2Cc2ccc3c(c2)OCO3)c2ccccc2N1 | inactive: > 76.9 µM
34 | COCCn1c(SCC(=O)N2CCCCC2)nc2ccccc2c1=O | inactive: > 76.9 µM
35 | COc1ccccc1NC(=O)CN1CCN(Cc2ccccc2)CC1 | inactive: > 76.9 µM
36 | Fc1ccccc1CSc1nnc(-c2ccccc2)o1 | inactive: > 76.9 µM
37 | CCC(=O)Nc1nc(CC(=O)Nc2ccccc2)cs1 | inactive: > 76.9 µM
38 | CCc1ccccc1Nc1nc(N)nc(CSCC(=O)c2cc(C)n(C)c2C)n1 | inactive: > 76.9 µM
39 | COc1ccc(OCC(=O)Nc2ccccc2C(=O)N2CCCC2)cc1 | inactive: > 76.9 µM
40 | O=C(NCc1ccc2c(c1)OCO2)C1CCCN1C(=O)Nc1cccc(Cl)c1 (configuration not stated) | inactive: > 76.9 µM
41 | CC1(C)CC(=O)C(C(c2ccncc2)C2C(=O)CC(C)(C)CC2=O)C(=O)C1 | inactive: > 76.9 µM
42 | CN1CCN(c2nc(-c3ccncc3)nc3ccccc23)CC1 | inactive: > 76.9 µM
43 | Cn1cccc1C(=O)NC(=O)COC(=O)Cc1coc2ccc3ccccc3c12 | inactive: > 76.9 µM
44 | O=C(CSc1ncc(-c2ccc(F)cc2)n1Cc1ccco1)Nc1nccs1 | inactive: > 76.9 µM

Row | SMILES | Potency
45 | O=C(COC(=O)CSCC(=O)N1CCCCC1)NCc1ccc(F)cc1 | inactive: > 76.9 µM
46 | COc1ccc(-n2c(N)c(C(=O)NCC3CCCO3)c3nc4ccccc4nc32)c(OC)c1 (configuration not stated) | inactive: > 76.9 µM
47 | CCN1CCC2(CC1)C(C#N)=C(N)Oc1c2sc2nc(C)cc(C)c12 | inactive: > 76.9 µM
48 | COc1cc(C(=O)OCC(=O)c2cc(C)n(C)c2C)cc(NC(=O)c2ccco2)c1OC | inactive: > 76.9 µM
49 | C=CCn1c(COc2ccc(F)cc2)nnc1SCC(=O)NC(=O)NCc1ccco1 | active: 15.2 µM
50 | CCn1c(SCc2nc3ccccc3[nH]2)nnc1-c1ccncc1 | inactive: > 76.9 µM
51 | COc1cccc2cc(C(=O)C3=C(O)C(=O)N(CCCN(C)C)C3c3ccncc3)oc12 (configuration not stated) | inactive: > 76.9 µM
52 | CCOC(=O)CCCNC(=O)COC(=O)CCC(=O)c1ccc(F)cc1 | inactive: > 76.9 µM
53 | O=C(NCCCN1CCCC1=O)c1ccc2c(c1)NC(=O)C(N1CCOCC1)S2 (configuration not stated) | inactive: > 76.9 µM
54 | c1ccc2c(c1)oc1c(N3CCN(Cc4ccc5c(c4)OCO5)CC3)ncnc12 | inactive: > 76.9 µM
55 | COCC(C)n1c(C)cc(C(=O)CSc2nc3ccccc3c(=O)[nH]2)c1C (configuration not stated) | inactive: > 76.9 µM
56 | COc1ccc(C(=O)Cn2c(Br)nc3c2c(=O)n(C)c(=O)n3C)cc1 | inactive: > 76.9 µM
57 | COCCn1c(C)cc(C(=O)COC(=O)c2n[nH]c3ccccc23)c1C | inactive: > 76.9 µM
58 | CCCS(=O)(=O)c1nnnn1-c1cccc(OC)c1 | inactive: > 76.9 µM
59 | COc1ccc(CCNC(=O)C2CCN(S(=O)(=O)N3CC(C)CC(C)C3)CC2)cc1OC (configuration not stated) | inactive: > 76.9 µM
60 | COC(=O)CSc1nnc(C)n1-c1cccc(C#N)c1 | inactive: > 76.9 µM
61 | Cc1ccc(CNC(=O)CN2CCN(Cc3ccc(C)cc3)C2=O)cc1 | inactive: > 76.9 µM
62 | COc1ccc2[nH]c3nc(SCc4nnc(-c5ccc(C)cc5)o4)nnc3c2c1 | inactive: > 76.9 µM
63 | Cc1ccc(N2CC(C(=O)NCC3CCCO3)CC2=O)cc1Cl (configuration not stated) | inactive: > 76.9 µM
64 | CCCCNC(=O)C1CCCN1C(=O)Nc1cccc(OC)c1 (configuration not stated) | inactive: > 76.9 µM
65 | O=S(=O)(NCCOCC(F)(F)F)c1ccc2oc3ccccc3c2c1 | inactive: > 76.9 µM
66 | CCCOc1ccc(-c2cnc(SCC(N)=O)nc2N)cc1 | inactive

Row | SMILES | Potency
67 | COc1ccc(-c2noc(C3CCCN(C(=O)c4ccccc4OC)C3)n2)cc1OC (configuration not stated) | inactive: > 76.9 µM
68 | Cc1onc(-c2ccncc2)c1C(=O)O | inactive: > 76.9 µM
69 | Cc1cc(-c2nnc3sc(-c4ccc(Cl)cc4Cl)nn23)n[nH]1 | inactive: > 76.9 µM
70 | c1ccc(-c2noc(COc3ccc4c(c3)OCO4)n2)cc1 | inactive: > 76.9 µM
71 | O=C(Nc1nccs1)C1CCCN1S(=O)(=O)c1ccc(F)cc1 (configuration not stated) | inactive: > 76.9 µM
72 | O=C(O)C1CCCN1c1ncnc2c1oc1ccccc12 (configuration not stated) | inactive: > 76.9 µM
73 | Cc1cc(C)c(S(=O)(=O)NCCC2CCCN2C)c(C)c1 (configuration not stated) | inactive: > 76.9 µM
74 | CCOCCN1CCN(c2c(C)c(C)nc3cc(-c4cc(OC)cc(OC)c4)nn23)CC1 | inactive: > 76.9 µM
75 | CC(NS(=O)(=O)c1ccccc1)C(c1cccs1)N1CCN(c2ccccc2)CC1 (configuration not stated) | inactive: > 76.9 µM
76 | COCc1c(C(=O)OCC(=O)N2c3ccccc3CC2C)oc2ccccc12 (configuration not stated) | inactive: > 76.9 µM
77 | CCOC(=O)c1[nH]c(C)c(C(=O)c2cc(F)ccc2F)c1C | inactive: > 76.9 µM
78 | COc1cc(NC(=O)CS(=O)(=O)c2ccccc2)cc(OC)c1OC | inactive: > 76.9 µM
79 | COc1ccc(S(=O)(=O)N2CCCCCC2)cc1C(=O)OCc1c(C)noc1C | inactive: > 76.9 µM
80 | Cc1occc1-c1nnc(SCC(=O)NCCc2ccccc2)n1C(C)c1ccccc1 (configuration not stated) | inactive: > 76.9 µM
81 | COc1ccc2nc3oc(C(=O)N4CCN(c5cccc(C(F)(F)F)c5)CC4)cc3cc2c1 | inactive: > 76.9 µM
82 | O=S(=O)(c1cccc(S(=O)(=O)N2CCC(n3nnc4ccccc43)CC2)c1)N1CCCCC1 | active: 10.5 µM
83 | CCNC(=O)N1CCNC(=O)C1CC(=O)Nc1ccc(C(=O)OCC)cc1 (configuration not stated) | inactive: > 76.9 µM
84 | COc1ccc(-c2cc(C(=O)Nc3c(C)nn(Cc4ccccc4Cl)c3C)no2)cc1OC | inactive: > 76.9 µM
85 | O=C(CSCC(=O)NCc1ccco1)NCc1ccco1 | inactive: > 76.9 µM
86 | Cc1ccc2c(c1)C1CN(C)CCC1N2CC(=O)N(C)c1ccccc1 (configuration not stated) | inactive: > 76.9 µM
87 | CCCCn1c(SCC(=O)NCc2ccco2)nnc1-c1ccco1 | inactive: > 76.9 µM
